Source: PubChem BioAssay AID1745853 (National Center for Advancing Translational Sciences (NCATS), 2022)
This is one part of the list. Shown are side measurements of this screen, not its main read-out; they come without a call.

Columns and labels:
Experiment in all cases: Primary Screen for Target Class Profiling of Small Molecule Inhibitors of Methyltransferases
[1] = target: Glycine N-methyltransferase (Homo sapiens) (UniProt Q14749); conditions: purified enzyme, MTase-Glo SAH luminescence; measured here: GNMT inhibition; at 40 µM; stronger effect = lower value
Summary of the method: (§1)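 Each enzyme was reacted with SAM and its substrate, with compounds tested once at 40 uM; SAH formed was read by MTase-Glo luminescence.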

[2] = target: Guanidinoacetate N-methyltransferase (Homo sapiens) (UniProt Q14353); conditions: purified enzyme, MTase-Glo SAH luminescence; measured here: GAMT inhibition; at 40 µM; stronger effect = lower value
Summary of the method: as §1

[3] = target: Histamine N-methyltransferase (Homo sapiens) (UniProt P50135); conditions: purified enzyme, MTase-Glo SAH luminescence; measured here: HNMT inhibition; at 40 µM; stronger effect = lower value
Summary of the method: as §1

[4] = target: Nicotinamide N-methyltransferase (Homo sapiens) (UniProt P40261); conditions: purified enzyme, MTase-Glo SAH luminescence; measured here: NNMT inhibition; at 40 µM; stronger effect = lower value
Summary of the method: as §1

[5] = target: Phenylethanolamine N-methyltransferase (Homo sapiens) (UniProt P11086); conditions: purified enzyme, MTase-Glo SAH luminescence; measured here: PNMT inhibition; at 40 µM; stronger effect = lower value
Summary of the method: as §1
% is set by controls: 0 for no effect and ±100 for the full control effect.

| SMILES | activity change, negative = inhibition [1] [%] | activity change, negative = inhibition [2] [%] | activity change, negative = inhibition [3] [%] | activity change, negative = inhibition [4] [%] | activity change, negative = inhibition [5] [%] |
| --- | --- | --- | --- | --- | --- |
| Cc1ccc2nc(NC(=O)CSc3nc4c(c(=O)n3-c3ccccc3)SCC4)sc2c1 | -0.461 | -1.59 | 6.96 | -16.8 | 0.288 |
| CCCn1c(=O)c2ccc(C(=O)NCC(C)C)cc2n2c(=O)n(CC(=O)Nc3ccccc3C)nc12 | 4.49 | 0 | 5.72 | 4.34 | 2.53 |
| CC(=O)N1CCC(C(=O)NC2CCc3n[nH]c(=O)n3CC2)CC1 (stereo not drawn) | -0.942 | -2.2 | 0.658 | 0.686 | 4.67 |
| O=[S+]1([O-])NC2(CCCN(Cc3ccc(F)cc3)C2)CNc2ccccc21 (stereo not drawn) | -47.6 | -2.17 | 0.268 | -1.8 | 1.03 |
| CCc1ccccc1NC(=O)CSc1nnc2n(CC(C)C)c(=O)c3ccccc3n12 | -9.81 | -5.15 | 1.86 | -10.7 | -8.32 |
| N#Cc1cccnc1-c1ccc(C(=O)N2CCC(N[S+](=O)([O-])c3cccc(C(F)(F)F)c3)CC2)cc1 | -5.33 | 0.252 | -0.148 | -10.7 | -3.7 |
| COc1cccc(CCC(=O)NC2CCc3nn(CC4CC4)c(=O)n3CC2)c1 (stereo not drawn) | -3.63 | -3.26 | -0.86 | -8.02 | -0.191 |
| CCCn1c(=O)c2ccc(C(=O)NC(C)C)cc2n2c(=O)n(C)nc12 | 3.89 | 0.743 | 8.05 | 4.44 | 7.64 |
| Cc1ccc(Cn2c(=O)c3ccc(C(=O)NC4CCCCC4)cc3n3c(=O)n(C)nc23)cc1 | 4.63 | 0.247 | 6.88 | 5.76 | 3.44 |
| O=C(NC[C@H]1O[C@@H](CO)[C@@H](O)[C@H]1N1CCOCC1)c1cccc(F)c1 | 0.592 | 1.86 | 2.33 | 1.06 | 10.5 |
| CN(CCCN1C(=O)c2cc3occc3n2CC1(C)C(=O)NC1CCCCC1)Cc1ccccc1 (stereo not drawn) | 7.75 | 2.18 | -2.89 | 9.94 | 4.75 |
| CC(C)CCn1c(=O)c2ccccc2n2c(=O)n(CC(=O)Nc3ccc(F)cc3)nc12 | 1.73 | 0 | 1.82 | -6.89 | 3.48 |
| COc1ccc(Cl)cc1C(=O)N(C)C1CCc2nn(C)c(=O)n2CC1 (stereo not drawn) | -1.51 | -3.42 | 1.76 | -3.76 | -17.8 |
| C[C@@H]1CCC/C=C/[C@H]2CC(=O)C[C@@H]2[C@@H](O)/C=C/C(=O)O1 | -0.642 | -3.74 | 6.26 | -42.7 | 1.95 |
| CC1CCCCC1NC(=O)C1(C)Cn2c(nc3ccccc32)C(=O)N1Cc1ccc2c(c1)OCO2 (stereo not drawn) | 5.25 | 0 | 9.25 | 11.1 | 3.34 |
| COc1cccc(-c2ccc(C(=O)NCCNC(=O)C3CCCC3)cc2)c1 | -8.91 | -10.8 | -5.46 | -17.5 | -11.9 |
| CNC(=O)N1CCC(C2CCN(C(=O)CCc3ccccc3OC)C2)CC1 (stereo not drawn) | -4.3 | -12.1 | -1.69 | -7.36 | -3.8 |
| Cc1cccc(N2CCN(C(=O)c3ccc4c(=O)[nH]c5c(C(=O)NC6CCCC6)sc(=S)n5c4c3)CC2)c1C | -3.74 | 4.77 | -9.35 | -9.87 | -0.939 |
| Cc1ccc(N2C(=O)c3cc(-c4ccco4)nn3CC2(C)C(=O)NC2CCCCCC2)cc1Cl (stereo not drawn) | -1.88 | 4.31 | 3.8 | -9.01 | -0.666 |

| SMILES | activity change, negative = inhibition [1] [%] | activity change, negative = inhibition [2] [%] | activity change, negative = inhibition [3] [%] | activity change, negative = inhibition [4] [%] | activity change, negative = inhibition [5] [%] |
| --- | --- | --- | --- | --- | --- |
| CCOc1ccc(C(=O)Cn2nc3n(C(C)C)c(=O)c4ccc(C(=O)NCC(C)C)cc4n3c2=O)cc1 | 3.91 | 0 | 9.73 | -4.14 | 1.47 |
| COc1cccc(CN2C(=O)c3cc4occc4n3CC2(C)C(=O)NC2CCCCCC2)c1 (stereo not drawn) | -8.64 | 0.706 | -4.53 | -18.6 | -4.41 |
| CCCn1c(=O)c2ccc(C(=O)NC3CCCCC3)cc2n2c(=O)n(CC(=O)c3cccc(OC)c3)nc12 | 2.45 | 4.07 | -1.69 | 1.21 | 2.42 |
| C#CCn1c(=O)c2c(ncn2C)n(C)c1=O | 2.63 | 14.5 | 10.7 | -1.61 | 6.39 |
| COc1ccccc1N1C(=O)CSc2c(c3ccccc3n2C)C1C(=O)NCc1ccccc1 (stereo not drawn) | -2.77 | 4.19 | 2.39 | -2.27 | -2.91 |
| CC(CCC1(O)OC2CC3C4CCC5CC(O[C@@H]6O[C@H](CO)[C@@H](O)[C@H](O)[C@H]6O[C@@H]6OC[C@@H](O)[C@H](O)[C@H]6O)C(O)CC5(C)C4CCC3(C)C2C1C)CO[C@@H]1O[C@H](CO)[C@@H](O)[C@H](O)[C@H]1O (stereo partly drawn) | -0.59 | 0.547 | 9.39 | -11.1 | 3.94 |
| Fc1ccc(-c2c3cccc(C(F)(F)F)c3nn2Cc2ccc(F)cc2Cl)cc1 | 3.11 | -7.67 | 11.4 | -17.7 | 1.19 |
| CCOc1cc2c(c(F)c1OCC)C(=N)N(CC(=O)c1cc(N3CCOCC3)c(OC)c(C(C)(C)C)c1)C2 | -4.68 | 0.822 | -17.8 | -45.5 | -15.6 |
| OC[C@@H]1O[C@H](CNC2CCOCC2)[C@H](N2CCCC2)[C@@H]1O | -2.2 | -5.56 | -1.18 | -8.5 | -5.08 |
| CCNC(=O)[C@@H]1C[C@H](NC(=O)c2ccc[nH]2)CN1C(=O)Cc1cc(C)no1 | -2.96 | 2.08 | -0.062 | -1.54 | -3.03 |
| C[C@@H]1O[C@@H](OC[C@H]2O[C@@H](Oc3cc(O)cc4c3C(=O)C(O)(Cc3ccc(O)cc3)O4)[C@H](O)[C@@H](O)[C@@H]2O)[C@H](O)[C@H](O)[C@H]1O (stereo partly drawn) | -9.27 | 1.02 | -3.98 | -9.61 | 1.45 |
| O=C(c1ccc(F)cc1)C1CCN(CCn2c(=O)nc3n(c2=O)CCCC3)CC1 | 2.1 | -0.987 | 2.75 | -12.7 | -1.54 |
| CC1(C)CC[C@]2(C(=O)O)CC[C@]3(C)C(=CCC4[C@@]5(C)CC[C@H](O[C@@H]6O[C@H](C(=O)O)[C@@H](O[C@@H]7OC[C@@H](O)[C@H](O)[C@H]7O)[C@H](O)[C@H]6O)C(C)(C)C5CC[C@]43C)C2C1O (stereo partly drawn) | 1.02 | -1.01 | 6.62 | -13.4 | -7.54 |
| CCN(CC)c1nc2c(-c3cccc(Br)c3)nnn2c2ccccc12 | -4.66 | -0.04 | -3.2 | -4.93 | -9.94 |
| CCCn1c(=O)c2ccccc2n2c(SCC(=O)Nc3cccc(Cl)c3)nnc12 | -1.84 | 1.04 | 10.1 | -4.92 | 3.93 |
| Cn1cc(-c2ccc3c(c2)CCN3C(=O)Cc2cccc(C(F)(F)F)c2)c2c(N)ncnc21 | -2.06 | 13.6 | 9.81 | -15.4 | -4.79 |
| CCCCc1ncc(-c2c(-c3ccccc3)ncn2CCCn2ccnc2)[nH]1 | -14.7 | -14.4 | -4.53 | -17.9 | -11 |
| COCC(=O)N[C@@H]1CN(C2CCOCC2)CC[C@@H]1CO | -1.76 | -0.994 | -1.65 | -1.76 | -2.79 |
| CC(Cc1cc2c(c(C(N)=O)c1)N(CCCO)CC2)NCCOc1ccccc1OCC(F)(F)F (stereo not drawn) | 8.86 | 5.7 | 3.21 | -10.7 | -5.38 |

| SMILES | activity change, negative = inhibition [1] [%] | activity change, negative = inhibition [2] [%] | activity change, negative = inhibition [3] [%] | activity change, negative = inhibition [4] [%] | activity change, negative = inhibition [5] [%] |
| --- | --- | --- | --- | --- | --- |
| O=C(Cn1nc2n(CCc3ccccc3)c(=O)c3ccccc3n2c1=O)NC1CCCCC1 | 3.06 | 4.59 | 3.15 | 3.08 | 0.793 |
| CC(C)OCCCn1c(=O)c2ccccc2n2c(=O)n(CC(=O)Nc3ccccc3F)nc12 | 0.959 | 0.316 | 6.2 | 5.87 | 3.14 |
| Cc1cc(C(=O)Nc2cccc(C(=O)Nc3cccc(C(F)(F)F)c3)c2)on1 | 3.55 | -18.5 | 2.88 | -20.4 | -7.95 |
| Fc1ccc(CNc2nc3c(-c4ccccc4)nnn3c3ccccc23)cc1 | -2.51 | 0 | 1.57 | -2.73 | -4.13 |
| Cc1cc(SCc2sc(-c3ccc(C(F)(F)F)cc3)nc2C)ccc1OCC(=O)O | -35.3 | -3.5 | 3.51 | -29.2 | 1.57 |
| Cc1cccc(NC(=O)Cn2c(=O)oc3cc(S(=O)(=O)N4CCCCC4)ccc32)c1C | -8.77 | 3.7 | -1.94 | -14.6 | -11.6 |
| CCCN1C(=O)c2c(C(=O)NCc3ccc(OCC)c(OC)c3)ncn2CC1(C)C(=O)NC1CCCC1 (stereo not drawn) | 2.05 | 0 | -0.353 | 2.95 | 7.34 |
| CC(NC(=O)c1ccco1)c1nc(-c2ccc(S(=O)(=O)N3CCCC3)cc2)no1 (stereo not drawn) | -1.39 | 5.03 | 1.94 | -0.194 | 3.15 |
| CCC[C@@]1(CCc2ccccc2)CC(O)=C([C@H](CC)c2cccc(NS(=O)(=O)c3ccc(C(F)(F)F)cn3)c2)C(=O)O1 | -8.18 | -7.6 | 7.54 | -45.1 | -19.4 |
| COC(=O)C[C@@H]1C(C(=O)O)=CO[C@@H](O[C@@H]2O[C@H](CO)[C@@H](O)[C@H](O)[C@H]2O)/C1=C\COC(=O)/C=C/c1ccc(O)c(OC)c1 | 3.41 | 8.03 | 5.97 | -3.76 | 7.4 |
| CN1CC[C@H]2CN(S(=O)(=O)c3ccc(NC(N)=O)cc3)C[C@H]21 | -8.11 | -10 | -9.38 | -8.78 | -1.78 |
| CC(C)Cn1c(=O)c2ccccc2n2c(=O)n(Cc3ccc(Cl)cc3)nc12 | 2.6 | 0.145 | 7.15 | -6.75 | 4.13 |
| CC1CCCN1c1ccc(C(=O)N2CCC(Oc3cccnc3)CC2)cn1 (stereo not drawn) | -25.6 | -7.36 | -8.37 | -13.4 | -19.9 |
| COC(=O)N(C)Cc1cccc(N2CCN(C(c3ccccc3)c3ccccc3)CC2)c1 |  | -10.1 |  | -16.8 | 0.377 |
| CCN1CCN(C(=O)C2Cn3cccc3C(=O)N2C)CC1 (stereo not drawn) | -3.34 | -7.91 | -4 | -7.48 | -5.39 |
| Cc1noc(C)c1-c1ccc2c(n1)CN(CCOc1ccccc1)C(=O)CO2 | -8.89 | -8.14 | -6.74 | -20.2 | -9.29 |
| Nc1ncnc2c1nc(Sc1ccc(Cl)cc1)n2[C@H]1OC2COP(=O)(O)O[C@@H]2C1O (stereo partly drawn) | 4.79 | 8.16 | 7.31 | -5.31 | -0.213 |
| CCOc1ccc(CNC(=O)c2ncn3c2C(=O)N(CC)C(C)(C(=O)NC2CCCC2)C3)cc1 (stereo not drawn) | 0.841 | 0 | 9.03 | 0.928 | 6.33 |
